{"source": "patent US20230144436A1", "about": "“MUSCLE TARGETING COMPLEXES AND USES THEREOF FOR TREATING MYOTONIC DYSTROPHY” (Dyne Therapeutics, Inc., priority 2020, published 2023)", "key": {"DMPK [1]": {"tested_on": "DMPK", "experiment": "DMPK knockdown by anti-TfR1 antibody-oligonucleotide conjugates in DM1 patient myotubes", "assay_type": "cell-based, human", "procedure": "(§1) The purified complexes were then tested for cellular internalization and inhibition of the target gene, DMPK. Non-human primate (NHP) or DM1 (donated by DM1 patients) cells were grown in 96-well plates and differentiated into myotubes for 7 days. Cells were then treated with escalating concentrations (0.5 nM, 5 nM, 50 nM) of each complex for 72 hours. Cells were harvested, RNA was isolated, and reverse transcription was performed to generate cDNA. qPCR was performed using TaqMan kits specific for Ppib (control) and DMPK on the QuantStudio 7. The relative amounts of remaining DMPK transcript in treated vs non-treated cells was were calculated and the results are shown in Table 14 and FIG. 20.\nas §1, with “of” for “of the target gene,”, “in” for “in Table 14 and”, “23.” for “20.”"}, "DMPK [2]": {"tested_on": "DMPK", "experiment": "DMPK knockdown by anti-TfR1 antibody-oligonucleotide conjugates in NHP myotubes", "assay_type": "cell-based, non-human primate", "details": "conjugate with control DMPK-ASO, 72 hours, concentration not stated (0.5, 5, 50 nM tested)", "procedure": "as §1\nas §1, with “of” for “of the target gene,”, “in” for “in Table 14 and”, “23.” for “20.”"}, "hTfR1": {"target": "hTfR1 (Homo sapiens, UniProt P02786)", "sequence (P02786 whole entry)": "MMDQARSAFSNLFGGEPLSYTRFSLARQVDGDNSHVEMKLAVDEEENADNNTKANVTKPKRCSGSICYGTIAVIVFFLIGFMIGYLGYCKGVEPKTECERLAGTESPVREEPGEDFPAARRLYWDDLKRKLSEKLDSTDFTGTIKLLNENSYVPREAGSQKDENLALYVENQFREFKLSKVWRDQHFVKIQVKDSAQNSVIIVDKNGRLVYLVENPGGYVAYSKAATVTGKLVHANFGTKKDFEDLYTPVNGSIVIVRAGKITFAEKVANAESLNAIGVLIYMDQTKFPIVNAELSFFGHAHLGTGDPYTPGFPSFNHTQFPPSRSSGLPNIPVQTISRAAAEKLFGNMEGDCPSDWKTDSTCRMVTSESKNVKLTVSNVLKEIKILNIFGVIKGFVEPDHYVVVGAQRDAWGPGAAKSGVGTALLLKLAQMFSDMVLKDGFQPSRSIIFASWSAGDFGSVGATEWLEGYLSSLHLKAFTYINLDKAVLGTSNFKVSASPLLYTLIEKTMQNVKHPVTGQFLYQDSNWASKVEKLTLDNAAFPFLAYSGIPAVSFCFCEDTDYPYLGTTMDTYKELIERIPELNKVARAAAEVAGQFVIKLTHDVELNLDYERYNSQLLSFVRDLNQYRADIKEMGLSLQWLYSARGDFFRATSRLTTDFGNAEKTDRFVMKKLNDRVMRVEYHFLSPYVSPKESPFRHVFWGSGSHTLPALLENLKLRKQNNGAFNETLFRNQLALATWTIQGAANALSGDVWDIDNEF", "experiment": "Binding kinetics of anti-TfR1 antibodies on Carterra LSA, hTfR1", "details": "Carterra LSA at 25 C", "procedure": "Selected anti-TfR1 antibodies were tested for their binding affinity to human TfR1 for measurement of Ka (association rate constant), Kd (dissociation rate constant), and KD (affinity). […] The binding experiment was performed on Carterra LSA at 25 C. An anti-mouse IgG and anti-human IgG antibody “lawn” was prepared on a HC30M chip by amine coupling. 59 IgGs (58 mouse mAbs and 1 human mAb) were captured on the chip. Dilution series of hTfR1, cyTfR1, and hTfR2 were injected to the chip for binding (starting from 1000 nM, 1:3 dilution, 8 concentrations).\nBinding data were referenced by subtracting the responses from a buffer analyte injection and globally fitting to a 1:1 Langmuir binding model for estimate of Ka (association rate constant), Kd (dissociation rate constant), and KD (affinity) using the Carterra™ Kinetics software. 5-6 concentrations were used for curve fitting."}}}
{"molecule": "3-M9 (antibody, V domains shown) VH: EVQLQQSGAELVRPGASVKLSCTASDFNIKDDYIHWVKQRPEQGLEWIGRIDPANGNTKYAPKFQDKATITADTSSNTAYLQLSSLTSEDTAVYYCALGYTYWGQGTTLTVSS VL: DVVMTQTPLTLSVTIGQPASISCKSSQSLLHSYGKTYLNWLLQRPGQSPKLLIYLVSKLESGVPDRFSGSGSGTDFTLKISRVEAEDLGVYYCLQTTHFPQTFGGGTKLEIK", "values": [{"measurement": "% knockdown of DMPK in cells from human DM1 patients using Antibody-DMPK ASO conjugate", "setting": "DMPK [1]; DM1 patient myotubes, conjugate with control DMPK-ASO, 72 hours, concentration not stated (0.5, 5, 50 nM tested)", "value": 39, "unit": "%"}, {"measurement": "activity in delivering a payload (DMPK ASO) and achieving DMPK knockdown compared to the control antibody 15G11", "setting": "DMPK [1]; conjugates with control DMPK-ASO, in either cyno cells or human DM1 patient cells", "value": "superior activity"}, {"measurement": "% knockdown of DMPK in NHP cells using Antibody-DMPK ASO conjugate", "setting": "DMPK [2]", "value": 52, "unit": "%"}]}
{"molecule": "3-M09 (antibody, V domains shown) VH: EVQLQQSGAELVRPGASVKLSCTASDFNIKDDYIHWVKQRPEQGLEWIGRIDPANGNTKYAPKFQDKATITADTSSNTAYLQLSSLTSEDTAVYYCALGYTYWGQGTTLTVSS VL: DVVMTQTPLTLSVTIGQPASISCKSSQSLLHSYGKTYLNWLLQRPGQSPKLLIYLVSKLESGVPDRFSGSGSGTDFTLKISRVEAEDLGVYYCLQTTHFPQTFGGGTKLEIK", "values": [{"measurement": "dissociation rate constant (koff)", "setting": "hTfR1", "value": 382, "unit": "µM"}]}
